# Experimental data taken from PMC11995724, “Antibiotic target discovery by integrated phenotypic and activity-based profiling of electrophilic fragments” (Cell chemical biology, 2025).
# The whole screen tested about 3,200 compounds, of which about 110 (3.4%) showed an effect of 50% or more. This is one part of the list.
# Test system: T1, V. cholerae SAD30
# T1 construct: SAD30
# Parameters: species or system S. aureus MSSA476 (TSB) or V. cholerae SAD30 (LB); 384-well bacterial growth screen at 25 uM, OD600 relative to DMSO control
# Details: relative growth, OD600, LB; 25 µM; inhibitor
row,Compound,% of control remaining
1,"CN(C1CCCCC1)S(=O)(=O)c1ccc(NC(=O)CCl)cc1 [5-E03, 2-chloro-N-{4-[cyclohexyl(methyl)sulfamoyl]phenyl}acetamide]",101.713%
2,"CC(Cl)C(=O)Nc1ccc2c(c1)CCC2 (centres unmarked) [5-C19, 2-chloro-N-(2,3-dihydro-1H-inden-5-yl)propanamide]",86.9181%
3,"CC(Cl)C(=O)Nc1cccc(S(=O)(=O)N2CCCCC2)c1 (centres unmarked) [5-L12, 2-chloro-N-[3-(piperidine-1-sulfonyl)phenyl]propanamide]",82.7151%
4,"CC(=O)c1ccccc1NC(=O)C(C)Cl (centres unmarked) [5-O19, N-(2-acetylphenyl)-2-chloropropanamide]",97.5097%
5,"C=CC(=O)Nc1cccc(OC(C)(C)C)c1 [3-G14, N-[3-(tert-butoxy)phenyl]prop-2-enamide]",90.3253%
6,"CC(=O)c1c(C)[nH]c(C(=O)C(C)Cl)c1C (centres unmarked) [10-P22, 1-(4-acetyl-3,5-dimethyl-1H-pyrrol-2-yl)-2-chloropropan-1-one]",103.955%
7,"NC(=O)c1ccc(NC(=O)CCl)cc1 [4-P04, 4-(2-chloroacetamido)benzamide]",124.391%
8,"C=CC(=O)Nc1ccc(N(C)S(=O)(=O)CC)cc1 [3-H06, N-[4-(N-methylethanesulfonamido)phenyl]prop-2-enamide]",94.7363%
9,"CC(Cl)C(=O)NCc1nnc2n1-c1ccccc1CC2 (centres unmarked) [6-N14, 2-chloro-N-({4H,5H-[1,2,4]triazolo[4,3-a]quinolin-1-yl}methyl)propanamide]",91.6106%
10,"C=CC(=O)NCCc1nnc(C(C)C)s1 [2-L05, N-{2-[5-(propan-2-yl)-1,3,4-thiadiazol-2-yl]ethyl}prop-2-enamide]",115.208%
11,"Cc1ccc(C(=O)c2c(NC(=O)CCl)sc3c2CCCC3)cc1 [6-A12, 2-chloro-N-[3-(4-methylbenzoyl)-4,5,6,7-tetrahydro-1-benzothiophen-2-yl]acetamide]",94.644%
12,"CN(CCc1ccccc1O)C(=O)CCl [7-P21, 2-chloro-N-[2-(2-hydroxyphenyl)ethyl]-N-methylacetamide]",106.658%
13,"CN(C1CCCCC1)S(=O)(=O)c1ccccc1NC(=O)CCl [5-N10, 2-chloro-N-{2-[cyclohexyl(methyl)sulfamoyl]phenyl}acetamide]",98.8547%
14,"CC(c1ccc(C(F)(F)F)cc1F)N(C)C(=O)CCl (centres unmarked) [7-P18, 2-chloro-N-{1-[2-fluoro-4-(trifluoromethyl)phenyl]ethyl}-N-methylacetamide]",89.212%
